Key:
recombinant CD3 = recombinant CD3 (Homo sapiens, UniProt P07766); experiment: Binding of bispecific antibodies to recombinant CD3 (BLI); conditions: compared to the parental anti-CD3 antibody (FIG. 32A)
Protocol: Bispecific antibody production and affinity validation: A) BsAb Design and Recombinant Production: To produce bispecific antibodies (BsAbs), a set of BsAbs and anti-CD3 monoclonal antibody (mAb) will be transiently transfected into Expi CHO-S cells. The transfections were conducted at a 300 ml culture scale. After transfection, antibodies were purified using either a protein A affinity column or his-tag purification resin, depending on the affinity and properties of the expressed antibodies. To further purify the antibodies, size-exclusion chromatography (SEC-HPLC) was employed as a second-step purification, based on the initial purity analysis. B) BsAb Affinity Validation: Once the antibodies were purified, the following steps were performed for affinity validation: 1-Biacore SPR Analysis for Siglec15 Binding: Surface plasmon resonance (SPR) analysis using a Biacore system was conducted for all BsAbs and parental mAbs against Siglec15 to assess binding affinity. 2-Biacore SPR Analysis for CD3 Binding: Similarly, Biacore SPR analysis was conducted for all BsAbs and the parental anti-CD3 mAb to evaluate their binding affinity to CD3. […]

[1] = target: T1, Jurkat cells expressing CD3 (Homo sapiens, UniProt P07766); experiment: Binding of bispecific antibodies to Jurkat cells expressing CD3 (flow cytometry); conditions: for binding affinity for CD3-expressing Jurkat cells: flow cytometry, compared to the parental anti-CD3 (FIG. 32B)
T1 construct: endogenous in cells; host or cells: Jurkat

[2] = system: target cells expressing Siglec-15; experiment: PBMC based TDCC assay (LDH release); format: cell-based; conditions: in the presence of human T-cells (FIG. 34)
Protocol: PBMC based TDCC assay: 5000 target cells (THP-1 S15 OE) were harvested, gently resuspended in the corresponding assay buffer, and added to a 96-well assay plate. The bispecific antibody samples were diluted in assay medium, starting at a concentration of 0.8 nM with a 4-fold dilution factor, and transferred to the appropriate wells of the assay plate. The plate was incubated at room temperature for approximately 30 minutes. Effector cells (PBMCs) were then harvested, resuspended in assay buffer, and their density was adjusted to achieve the desired effector-to-target (E/T) ratio. The effector cell suspension (100 μL per well) was added to the corresponding wells of the assay plate. Following incubation at 37° C. with 5% CO2 for 24 hours, the assay plate was removed, and 50 μL of supernatant from each well was transferred to a new 96-well assay plate. A LDH assay mixture (50 μL per well) was prepared and added to the corresponding wells. Absorbance values were measured at 492 nm and 650 nm using the PHERAstar system. Dose-response curves were generated by plotting the percentage of target cell lysis against the sample concentration. The percentage of target cell lysis was calculated using the formula: %

T1 sequence (P07766 23-207): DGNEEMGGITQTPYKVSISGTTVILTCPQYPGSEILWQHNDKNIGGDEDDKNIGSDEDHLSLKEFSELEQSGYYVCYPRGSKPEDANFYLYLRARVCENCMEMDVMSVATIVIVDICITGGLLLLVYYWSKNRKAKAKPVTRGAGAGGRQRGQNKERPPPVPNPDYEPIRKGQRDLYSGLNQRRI
T1 sequence (P04234 22-171 partner): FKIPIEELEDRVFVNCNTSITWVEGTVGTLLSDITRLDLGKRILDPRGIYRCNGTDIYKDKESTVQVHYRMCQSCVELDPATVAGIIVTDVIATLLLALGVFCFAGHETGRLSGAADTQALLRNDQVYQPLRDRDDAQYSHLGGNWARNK
T1 sequence (P09693 23-182 partner): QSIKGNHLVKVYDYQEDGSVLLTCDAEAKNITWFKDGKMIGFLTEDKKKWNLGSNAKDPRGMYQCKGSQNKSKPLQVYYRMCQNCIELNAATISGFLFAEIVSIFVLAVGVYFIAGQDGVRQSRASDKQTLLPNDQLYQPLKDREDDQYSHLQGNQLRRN
T1 sequence (P20963 22-164 partner): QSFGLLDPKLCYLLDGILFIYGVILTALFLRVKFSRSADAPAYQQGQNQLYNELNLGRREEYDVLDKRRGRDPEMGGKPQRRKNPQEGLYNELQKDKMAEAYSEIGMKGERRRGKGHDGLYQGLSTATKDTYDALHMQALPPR
T1 sequence (P01848 whole entry partner): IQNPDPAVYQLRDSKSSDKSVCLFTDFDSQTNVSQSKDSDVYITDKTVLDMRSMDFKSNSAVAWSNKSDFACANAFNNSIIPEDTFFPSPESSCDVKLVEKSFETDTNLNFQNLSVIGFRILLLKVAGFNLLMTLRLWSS
T1 sequence (P01850 whole entry partner): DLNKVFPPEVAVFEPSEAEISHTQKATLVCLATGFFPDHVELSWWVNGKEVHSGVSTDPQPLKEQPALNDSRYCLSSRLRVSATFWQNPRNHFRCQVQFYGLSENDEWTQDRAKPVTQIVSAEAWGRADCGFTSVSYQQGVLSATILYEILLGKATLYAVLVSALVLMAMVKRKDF
Sequence of recombinant CD3 (P07766 23-207): as the sequence (P07766 23-207) above

Molecule | binding affinity for recombinant CD3 (recombinant CD3) | affinity for CD3-expressing Jurkat cells, BsAb-1 versus BsAb-2 ([1]; flow cytometry (FIG. 32B)) | binding affinity for CD3-expressing Jurkat cells [1] | lysis of target cells expressing Siglec-15 [2]
BsAb-1: Siglec-15 x CD3 bispecific antibody, Format-1: KIH & CrossmAb; SEQ ID NOs: 111-114 (protein, BsAb-1 VL1 + CL; BsAb-1 VH1 + CH; BsAb-1 VH2 + CH; BsAb-1 VL2 + CL) chain 1: DIVLTQSPASLAVSLGQRATISCRASKSVSTSGYSYMHWYQQKPGQPPKLLIYLASNLESGVPARFSGSGSGTDFTLNIHPVEEEDAATYYCQHGRELPFTFGSGTKLEIKRTVAAPSVFIFPPSDEQLKSGTASVVCLLNNFYPREAKVQWKVDNALQSGNSQESVTEQDSKDSTYSLSSTLTLSKADYEKHKVYACEVTHQGLSSPVTKSFNRGEC chain 2: QVQLQQSGPELVKPGASVKISCKASGYAFSSSWMNWVKQRPGKGLEWIGRIYPGHGETNYNGKFKDKATVTADKSSSTTYMQLSSLTSEDSAVYFCARVDNSDPYYFDYWGQGTTLTVSSASTKGPSVFPLAPSSKSTSGGTAALGCLVKDYFPEPVTVSWNSGALTSGVHTFPAVLQSSGLYSLSSVVTVPSSSLGTQTYICNVNHKPSNTKVDKKVEPKSCDKTHTCPPCPAPEAAGGPSVFLFPPKPKDTLMISRTPEVTCVVVDVSHEDPEVKFNWYVDGVEVHNAKTKPREEQYNSTYRVVSVLTVLHQDWLNGKEYKCKVSNKALPAPIEKTISKAKGQPREPQVCTLPPSRDELTKNQVSLSCAVKGFYPSDIAVEWESNGQPENNYKTTPPVLDSDGSFFLVSKLTVDKSRWQQGNVFSCSVMHEALHNHYTQKSLSLSPGK chain 3: EVQLVESGGGLVKPGGSLRLSCAASGFTFNTYAMNWVRQAPGKGLEWVARIRSKYNNYATYYADSVKDRFTISRDDSKNTLYLQMNSLKTEDTAVYYCVRHGNFGNSYVSWFAYWGQGTLVTVSSGQPKAAPSVTLFPPSSEELQANKATLVCLISDFYPGAVTVAWKADSSPVKAGVETTTPSKQSNNKYAASSYLSLTPEQWKSHRSYSCQVTHEGSTVEKTVAPTECS[sequence of human IgG1 Fc with changes not given] chain 4: QTVVTQEPSFSVSPGGTVTLTCRSSTGAVTTSNYANWVQQTPGQAPRGLIGGTNKRAPGVPARFSGSILGNKAALTITGAQADDEAEYFCALWYSNLWVFGGGTKLTVLASTKGPSVFPLAPSSKSTSGGTAALGCLVKDYFPEPVTVSWNSGALTSGVHTFPAVLQSSGLYSLSSVVTVPSSSLGTQTYICNVNHKPSNTKVDKKVEPKSC | lower binding affinity | higher affinity than BsAb-2 | lower binding affinity | approximately 70%
BsAb-2: Siglec-15 x CD3 bispecific antibody, Format-2: KIH & scFv (2 + 1); SEQ ID NOs: 115-118 (protein, BsAb-2 VL1 + CL; BsAb-2 VH1 + CH; BsAb-2 VH2 + CH; BsAb-2 VL2 + CL) chain 1: DIVLTQSPASLAVSLGQRATISCRASKSVSTSGYSYMHWYQQKPGQPPKLLIYLASNLESGVPARFSGSGSGTDFTLNIHPVEEEDAATYYCQHGRELPFTFGSGTKLEIKRTVAAPSVFIFPPSDEQLKSGTASVVCLLNNFYPREAKVQWKVDNALQSGNSQESVTEQDSKDSTYSLSSTLTLSKADYEKHKVYACEVTHQGLSSPVTKSFNRGEC chain 2: QVQLQQSGPELVKPGASVKISCKASGYAFSSSWMNWVKQRPGKGLEWIGRIYPGHGETNYNGKFKDKATVTADKSSSTTYMQLSSLTSEDSAVYFCARVDNSDPYYFDYWGQGTTLTVSSASTKGPSVFPLAPSSKSTSGGTAALGCLVKDYFPEPVTVSWNSGALTSGVHTFPAVLQSSGLYSLSSVVTVPSSSLGTQTYICNVNHKPSNTKVDKKVEPKSCDKTHTCPPCPAPEAAGGPSVFLFPPKPKDTLMISRTPEVTCVVVDVSHEDPEVKFNWYVDGVEVHNAKTKPREEQYNSTYRVVSVLTVLHQDWLNGKEYKCKVSNKALPAPIEKTISKAKGQPREPQVCTLPPSRDELTKNQVSLSCAVKGFYPSDIAVEWESNGQPENNYKTTPPVLDSDGSFFLVSKLTVDKSRWQQGNVFSCSVMHEALHNHYTQKSLSLSPGK chain 3: QVQLQQSGPELVKPGASVKISCKASGYAFSSSWMNWVKQRPGKGLEWIGRIYPGHGETNYNGKFKDKATVTADKSSSTTYMQLSSLTSEDSAVYFCARVDNSDPYYFDYWGQGTTLTVSSASTKGPSVFPLAPSSKSTSGGTAALGCLVKDYFPEPVTVSWNSGALTSGVHTFPAVLQSSGLYSLSSVVTVPSSSLGTQTYICNVNHKPSNTKVDKKVEPKSCGGGGSGGGGSGGGGSQTVVTQEPSFSVSPGGTVTLTCRSSTGAVTTSNYANWVQQTPGQAPRGLIGGTNKRAPGVPARFSGSILGNKAALTITGAQADDEAEYFCALWYSNLWVFGGGTKLTVLGGGGSGGGGSGGGGSGGGGSEVQLVESGGGLVKPGGSLRLSCAASGFTFNTYAMNWVRQAPGKGLEWVARIRSKYNNYATYYADSVKDRFTISRDDSKNTLYLQMNSLKTEDTAVYYCVRHGNFGNSYVSWFAYWGQGTLVTVSSGGGGSGGGGSGGGGS[sequence of human IgG1 Fc with changes not given] chain 4: DIVLTQSPASLAVSLGQRATISCRASKSVSTSGYSYMHWYQQKPGQPPKLLIYLASNLESGVPARFSGSGSGTDFTLNIHPVEEEDAATYYCQHGRELPFTFGSGTKLEIKRTVAAPSVFIFPPSDEQLKSGTASVVCLLNNFYPREAKVQWKVDNALQSGNSQESVTEQDSKDSTYSLSSTLTLSKADYEKHKVYACEVTHQGLSSPVTKSFNRGEC | lower binding affinity |  | lower binding affinity | ~40%

— patent publication US20250361297A1, “ANTI- SIGLEC-15 BINDING MOLECULES AND METHODS OF USE” (ADAPTAM THERAPEUTICS, S.L., priority 2024, published 2025)
